Laboratory results published in paper PMC9605988, “Juxtaposition of Bub1 and Cdc20 on phosphorylated Mad1 during catalytic mitotic checkpoint complex assembly” (Nature Communications, 2022).

B1: Mad2 wild type (C-Mad2 when bound to Mad1) (natural protein)
chain: not shown
notes: Mad2; Two copies of C-Mad2 per Mad1 dimer; The separately purified Mad2 has a TEV site after the tag; also called Mad2 WT; source: baculovirus co-expression with Mad1^[…]; further Mad2 WT purified on its own and added in excess
B2: Mad2 R133A (dimerisation-deficient), in the tetrameric Mad1^[…]:C-Mad2^R133A complex (natural protein)
chain: not shown
notes: Mad2; source: baculovirus co-expression with Mad1^[…]; further Mad2 R133A purified on its own and added in excess

How the values were obtained:
[1] = molecular target: T1, Mad1^485–718 (Mad1^485), unphosphorylated (UniProt Q9Y6D9 485-718); test: SEC + SEC-MALS; Mad1:C-Mad2 tetramer re-purified by SEC after adding excess Mad2; hexamer formed with an excess of Mad2LL; homogeneity confirmed by SEC-MALS; details: both partners purified
T1 construct: Mad1 residues 485-718; Construct His6-DoubleStrep-TEV-Mad1^485–718; two copies in the tetramer and hexamer with Mad2; also called Mad1 residues 485–718
T1 sequence (looked up): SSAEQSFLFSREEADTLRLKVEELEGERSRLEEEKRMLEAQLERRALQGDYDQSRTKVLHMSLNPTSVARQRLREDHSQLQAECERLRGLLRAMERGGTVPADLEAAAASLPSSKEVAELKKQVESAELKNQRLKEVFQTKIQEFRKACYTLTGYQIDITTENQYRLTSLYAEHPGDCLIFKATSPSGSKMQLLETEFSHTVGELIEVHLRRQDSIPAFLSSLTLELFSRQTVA

[2] = molecular target: T2, Mad1^485–718 phosphorylated by Mps1 (pMad1^485) (UniProt Q9Y6D9 485-718, phosphothreonine at 716 (predominant); lower abundant phosphorylation at Thr500, Ser538, Thr540, Thr550 and Ser551); test: as above; details: both partners purified
T2 construct: Mad1 residues 485-718; Predominantly one phosphate per monomer by intact mass; also called phosphorylated Mad1^485; phosphorylated Mad1^485–718
T2 sequence (looked up): T1 sequence (looked up)

Binder | binding result [1] | binding result [2]
B1 | binds | binds
B2 | binds | 
